Assay results as given in paper PMC12903445.
Positions count from the first letter of the chain named. Names may count otherwise. No constants are given. Whether binding was seen depends on the method and setting. In cells and extracts the contact can be indirect. Some results given as binding are weak or reduced against the parent protein; the word gives no strength. Sequences can lack the tags named with a protein. Blank lines part the entries; values can stand above or below the binder they belong to.

Target: T1, ULP1d (SUMO protease ULP1d/OTS1), Venus-half fusion (A. thaliana) (UniProt Q2PS26)
T1 sequence: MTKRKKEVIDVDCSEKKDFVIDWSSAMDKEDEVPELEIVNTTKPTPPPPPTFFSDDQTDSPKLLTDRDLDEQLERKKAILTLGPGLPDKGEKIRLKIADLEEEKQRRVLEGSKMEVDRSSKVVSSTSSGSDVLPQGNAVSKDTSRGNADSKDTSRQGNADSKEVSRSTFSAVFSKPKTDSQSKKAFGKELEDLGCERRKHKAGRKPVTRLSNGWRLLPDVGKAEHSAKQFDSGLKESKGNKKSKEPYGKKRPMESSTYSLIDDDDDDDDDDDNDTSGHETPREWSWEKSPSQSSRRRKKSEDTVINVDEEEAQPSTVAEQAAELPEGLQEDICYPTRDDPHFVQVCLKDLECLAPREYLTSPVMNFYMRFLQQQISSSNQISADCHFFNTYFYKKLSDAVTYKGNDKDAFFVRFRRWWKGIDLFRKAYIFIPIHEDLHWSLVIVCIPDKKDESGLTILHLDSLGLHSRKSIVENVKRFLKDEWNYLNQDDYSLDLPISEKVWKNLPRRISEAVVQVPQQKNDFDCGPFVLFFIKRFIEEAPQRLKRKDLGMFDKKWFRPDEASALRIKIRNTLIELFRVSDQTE
Assay: split reporter; BiFC with Venus halves (VENn/VENc) in N. benthamiana leaf epidermal cells co-infiltrated with A. tumefaciens GV3101; HC-Pro co-expressed; both orientations tested

- binding: binds
B2: αKNL2-C (C-terminal region of Arabidopsis KINETOCHORE NULL2, aa 364–598), Venus-half fusion (domain or fragment, UniProt F4KCE9 364-598)
chain: NYSGTKVKSAENKRKIDASKLQSPTSNVAEHSKEGLNNAKSNDVEKDVCVAINNEVISPVKGFGKRLSGTDVERLTSKNATKESLTSVQRKGRVKVSKAFQDPLSKGKSKKSEKTLQSNSNVVEPMNHFRSEAEEAEENLSWEKIKRKIDFDVEVTPEKKVKQQKTNAASTDSLGQKRSRSGRVLVSSLEFWRNQIPVYDMDRNLIQVKDGSETNSAPSKGKGSDSRKRRNLKIK

- binding: no binding
B3: αKNL2-C^K474R/K511R, Venus-half fusion (domain or fragment, UniProt F4KCE9 364-598)
chain: B2 chain with K111R, K148R

Second part, the binder before the results:

B1: αKNL2-N (N-terminal region of αKNL2, aa 1–363), Venus-half fusion (domain or fragment, UniProt F4KCE9 1-363)
chain: MTEPNLDEDGSKSSFQKTVVLRDWWLIKCPKEFEGKQFGVAGFEESVETRAMRVFTSSPITKALDVFTLLASDGIYITLRGFLNKERVLKNGFNPEISREFIFGFPPCWERVCNSCFEGDSFGTDVNTVPSTIEKACPPILSPCKYSNRNLKDNPAESREKSNVTETDIAEINDKGGSGARDIKTARRRSLHLQIKRILESSKVRKTANDGDHGSEFLNTAKRGDVERDGCEVINNEDSEWKLDESEVQNLCNDGDNGSEGFIKAKSSDVEKDKSEAIDNDVISPAVGSGIKHTGADNVDKVTSASATGESLTSEQQNGLLVTTASPHSLLKDLAKSSKPEKKGISKKSGKILRSDDNVVDPM
- binding: no binding

B4: full-length αKNL2 (aa 1–598), Venus-half fusion (protein, UniProt F4KCE9 1-598)
chain: MTEPNLDEDGSKSSFQKTVVLRDWWLIKCPKEFEGKQFGVAGFEESVETRAMRVFTSSPITKALDVFTLLASDGIYITLRGFLNKERVLKNGFNPEISREFIFGFPPCWERVCNSCFEGDSFGTDVNTVPSTIEKACPPILSPCKYSNRNLKDNPAESREKSNVTETDIAEINDKGGSGARDIKTARRRSLHLQIKRILESSKVRKTANDGDHGSEFLNTAKRGDVERDGCEVINNEDSEWKLDESEVQNLCNDGDNGSEGFIKAKSSDVEKDKSEAIDNDVISPAVGSGIKHTGADNVDKVTSASATGESLTSEQQNGLLVTTASPHSLLKDLAKSSKPEKKGISKKSGKILRSDDNVVDPMNYSGTKVKSAENKRKIDASKLQSPTSNVAEHSKEGLNNAKSNDVEKDVCVAINNEVISPVKGFGKRLSGTDVERLTSKNATKESLTSVQRKGRVKVSKAFQDPLSKGKSKKSEKTLQSNSNVVEPMNHFRSEAEEAEENLSWEKIKRKIDFDVEVTPEKKVKQQKTNAASTDSLGQKRSRSGRVLVSSLEFWRNQIPVYDMDRNLIQVKDGSETNSAPSKGKGSDSRKRRNLKIK
- binding: no binding
